Test results reported in the supplement of paper PMC8285479.
Where a name gives a salt, the structure may show the parent alone. ± gives the standard deviation of the averaged measurements. The full ranking holds about 1,900 compounds; the median of “normalised cell viability (NPI; 0 = phenylarsine oxide control, 1 = DMSO control)” is about 1, and the lowest 2% start at about 0.039. The list shows a part of the results.

Test system: NCI-H1944
Assay: normalised cell viability (NPI; 0 = phenylarsine oxide control, 1 = DMSO control) (fraction of DMSO control); NCI-H1944 is a non-small cell lung cancer line; higher = more viable cells (less compound toxicity)
Details: 6 days
[1] = glucocorticoid arm: hydrocortisone 2.75 uM co-treatment, compound 1 µM
[2] = glucocorticoid arm: hydrocortisone 2.75 uM co-treatment, compound 5 µM
[3] = glucocorticoid arm: hydrocortisone 2.75 uM pre-treated 2 days and continued, compound 1 µM
[4] = glucocorticoid arm: hydrocortisone 2.75 uM pre-treated 2 days and continued, compound 5 µM
[5] = glucocorticoid arm: vehicle, compound 1 µM
[6] = glucocorticoid arm: vehicle, compound 5 µM
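Further: CTB read-out in 384-well plates, mean of triplicate wells, normalised per plate against 1 µM phenylarsine oxide and 0.1% DMSO, compounds added 24 h after seeding.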

In the case of `Nc1c(O)cc(O)cc1C=Cc1ccc(O)cc1` [Aminoresveratrol sulfate], the normalised cell viability [1] is reported as 1 ± 0.015, the normalised cell viability [2] is reported as 1.01 ± 0.02 and the normalised cell viability [3] is reported as 1.01 ± 0.015. For the same molecule, the normalised cell viability [4] was 1.01 ± 0.014, the normalised cell viability [5] was 0.9937 ± 0.0027 and the normalised cell viability [6] was 1.01 ± 0.012.
In the case of `COc1ccc(Cl)cc1C(=O)NCCc1ccc(S(=O)(=O)NC(=O)NC2CCCCC2)cc1` [Glybenclamide], the normalised cell viability [1] is reported as 1.01 ± 0.018, the normalised cell viability [2] is reported as 0.9983 ± 0.0021 and the normalised cell viability [3] is reported as 1.007 ± 0.0058. For the same molecule, the normalised cell viability [4] was 0.997 ± 0.013, the normalised cell viability [5] was 1.001 ± 0.0081 and the normalised cell viability [6] was 1.003 ± 0.0058.
`CCCOc1ccccc1-c1nc2[nH]nnc2c(=O)[nH]1` [Zaprinast] gave a normalised cell viability [1] of 1.023 ± 0.0058, a normalised cell viability [2] of 1.013 ± 0.0058 and a normalised cell viability [3] of 1.04 ± 0.026. It also gave a normalised cell viability [4] of 1.01 ± 0.01, a normalised cell viability [5] of 1.023 ± 0.0058 and a normalised cell viability [6] of 1.023 ± 0.0058.
Work on `Cc1nc(C(=O)NCC(=O)O)c(O)c2ccc(Oc3ccccc3)cc12` yielded a normalised cell viability [1] of 0.9907 ± 0.0081, a normalised cell viability [2] of 1.01 ± 0.011 and a normalised cell viability [3] of 0.9877 ± 0.0015. For the same molecule, the normalised cell viability [4] was 1.006 ± 0.0075, the normalised cell viability [5] was 1.003 ± 0.0058 and the normalised cell viability [6] was 0.9967 ± 0.0031.
For `CC(C)N(CC[C@H](c1ccccc1)c1cc(CO)ccc1O)C(C)C`, the normalised cell viability [1] was 0.992 ± 0.026, the normalised cell viability [2] was 0.991 ± 0.018 and the normalised cell viability [3] was 1.02 ± 0.015. It also gave a normalised cell viability [4] of 0.994 ± 0.017, a normalised cell viability [5] of 1.005 ± 0.0081 and a normalised cell viability [6] of 0.998 ± 0.011.
For `Cn1cc(C(F)(F)F)nc1-c1ccc(OCC(O)CNCCOc2ccc(O)c(C(N)=O)c2)cc1` (stereo unspecified), the normalised cell viability [1] was 1, the normalised cell viability [2] was 0.97 ± 0.014 and the normalised cell viability [3] was 0.9983 ± 0.0029. It also gave a normalised cell viability [4] of 0.983 ± 0.015, a normalised cell viability [5] of 1.007 ± 0.0058 and a normalised cell viability [6] of 0.998 ± 0.012.
With `CC(C(O)c1ccc(O)cc1)N1CCC(Cc2ccccc2)CC1` (stereo unspecified) [Ifenprodil Tartrate] the normalised cell viability [1] was 0.9203 ± 0.0078, the normalised cell viability [2] was 0.88 ± 0.023 and the normalised cell viability [3] was 0.96 ± 0.035. It also gave a normalised cell viability [4] of 0.93 ± 0.035, a normalised cell viability [5] of 1.003 ± 0.0058 and a normalised cell viability [6] of 0.9643 ± 0.0067.
`CC(C(O)c1ccc(O)cc1)N1CCC(Cc2ccccc2)CC1` (stereo unspecified) [Ifenprodil tartrate] was tested, and the normalised cell viability [1] was 0.936 ± 0.0079, the normalised cell viability [2] was 0.902 ± 0.03 and the normalised cell viability [3] was 0.9643 ± 0.0064. It also gave a normalised cell viability [4] of 1.04 ± 0.09, a normalised cell viability [5] of 0.975 ± 0.0095 and a normalised cell viability [6] of 0.979 ± 0.012.
With `O=c1ccn([C@@H]2O[C@H](COP(=O)(O)OP(=O)(O)O)[C@@H](O)[C@H]2O)c(=O)[nH]1` [Uridine 5'-diphosphate sodium] the normalised cell viability [1] was 1 ± 0.0087, the normalised cell viability [2] was 1.017 ± 0.0058 and the normalised cell viability [3] was 1.02 ± 0.015. For the same molecule, the normalised cell viability [4] was 0.998 ± 0.0027, the normalised cell viability [5] was 0.996 ± 0.0069 and the normalised cell viability [6] was 0.9977 ± 0.004.
For `Cc1ccc(OCC(O)C(C)NC(C)C)c2c1CCC2` (stereo unspecified) [ICI 118,551 hydrochloride], the normalised cell viability [1] was 0.996 ± 0.013, the normalised cell viability [2] was 1.01 ± 0.038 and the normalised cell viability [3] was 1.003 ± 0.0058. For the same molecule, the normalised cell viability [4] was 1.05 ± 0.078, the normalised cell viability [5] was 0.993 ± 0.001 and the normalised cell viability [6] was 1.01 ± 0.015.
`NC(C(=O)O)C(O)C(=O)O` (racemic) [DL-threo-beta-hydroxyaspartic acid] gave a normalised cell viability [1] of 1.01 ± 0.011, a normalised cell viability [2] of 1.01 ± 0.028 and a normalised cell viability [3] of 1.01 ± 0.022. It also gave a normalised cell viability [4] of 1.01 ± 0.018, a normalised cell viability [5] of 1.003 ± 0.0061 and a normalised cell viability [6] of 1.001 ± 0.0081.
In the case of `O=C(O)C1=CC(=C(c2ccc(O)c(C(=O)O)c2)c2ccc(O)c(C(=O)O)c2)C=CC1=O` [Aurintricarboxylic acid], the normalised cell viability [1] is reported as 0.9873 ± 0.0042, the normalised cell viability [2] is reported as 1.02 ± 0.011 and the normalised cell viability [3] is reported as 0.9853 ± 0.0042. For the same molecule, the normalised cell viability [4] was 1.025 ± 0.0071, the normalised cell viability [5] was 0.98 ± 0.016 and the normalised cell viability [6] was 0.9767 ± 0.0065.
Work on `C[C@H](CS)C(=O)N1CCC[C@H]1C(=O)O` [Captopril] yielded a normalised cell viability [1] of 1.01 ± 0.019, a normalised cell viability [2] of 1.02 ± 0.028 and a normalised cell viability [3] of 1.01 ± 0.018. For the same molecule, the normalised cell viability [4] was 1.03 ± 0.035, the normalised cell viability [5] was 1.02 ± 0.038 and the normalised cell viability [6] was 1.01 ± 0.01.
For `Nc1nc(N)c2nc(-c3cccc(O)c3)c(-c3cccc(O)c3)nc2n1`, the normalised cell viability [1] was 1.013 ± 0.0058, the normalised cell viability [2] was 0.996 ± 0.036 and the normalised cell viability [3] was 1.01 ± 0.015. The normalised cell viability [4] was 1.01 ± 0.03, the normalised cell viability [5] was 0.991 ± 0.007 and the normalised cell viability [6] was 0.992 ± 0.0066.
For `Cn1cnc2c(F)c(Nc3ccc(Br)cc3Cl)c(C(=O)NOCCO)cc21` [AZD6244 (Selumetinib)], the normalised cell viability [1] was 0.636 ± 0.0087, the normalised cell viability [2] was 0.558 ± 0.018 and the normalised cell viability [3] was 0.667 ± 0.013. The normalised cell viability [4] was 0.675 ± 0.031, the normalised cell viability [5] was 0.701 ± 0.013 and the normalised cell viability [6] was 0.545 ± 0.048.
`NC(=O)c1ccccc1` [Benzamide] gave a normalised cell viability [1] of 1 ± 0.013, a normalised cell viability [2] of 1 ± 0.016 and a normalised cell viability [3] of 1.003 ± 0.0058. The normalised cell viability [4] was 0.9935 ± 0.0078, the normalised cell viability [5] was 0.9957 ± 0.0075 and the normalised cell viability [6] was 0.9973 ± 0.0046.
With `NC(N)=NC(N)=Nc1ccccc1` [1-Phenylbiguanide] the normalised cell viability [1] was 0.9727 ± 0.0086, the normalised cell viability [2] was 0.976 ± 0.0044 and the normalised cell viability [3] was 0.996 ± 0.013. For the same molecule, the normalised cell viability [4] was 0.97 ± 0.014, the normalised cell viability [5] was 0.9833 ± 0.0097 and the normalised cell viability [6] was 0.9757 ± 0.0025.
`NCCc1ccc(O)c(O)c1` [Dopamine HCl] was tested, and the normalised cell viability [1] was 1.02 ± 0.016, the normalised cell viability [2] was 1.01 ± 0.015 and the normalised cell viability [3] was 1.017 ± 0.0058. For the same molecule, the normalised cell viability [4] was 1.02 ± 0.015, the normalised cell viability [5] was 0.998 ± 0.0035 and the normalised cell viability [6] was 0.998 ± 0.0035.
Work on `NCCc1ccc(O)c(O)c1` [Dopamine hydrochloride] yielded a normalised cell viability [1] of 0.9903 ± 0.0035, a normalised cell viability [2] of 0.973 ± 0.022 and a normalised cell viability [3] of 0.9897 ± 0.0071. It also gave a normalised cell viability [4] of 0.987 ± 0.013, a normalised cell viability [5] of 0.976 ± 0.006 and a normalised cell viability [6] of 0.9827 ± 0.0035.
With `C[C@H](Cc1ccc(O)c(O)c1)[C@@H](C)Cc1ccc(O)c(O)c1` the normalised cell viability [1] was 0.996 ± 0.013, the normalised cell viability [2] was 1.02 ± 0.02 and the normalised cell viability [3] was 0.998 ± 0.013. It also gave a normalised cell viability [4] of 1.04 ± 0.058, a normalised cell viability [5] of 1.013 ± 0.0058 and a normalised cell viability [6] of 1.02 ± 0.011.
Work on `CCCCCC(O)CCCC(=O)O` (stereo unspecified) [5-hydroxydecanoic acid sodium salt] yielded a normalised cell viability [1] of 1.01, a normalised cell viability [2] of 1.02 and a normalised cell viability [3] of 1.02 ± 0.018. It also gave a normalised cell viability [4] of 1.01 ± 0.015, a normalised cell viability [5] of 1 and a normalised cell viability [6] of 1.006 ± 0.0063.
For `N#CC1(c2ccc(NC(=O)c3cccnc3NCc3ccncc3)cc2)CCCC1` [Apatinib (YN968D1)], the normalised cell viability [1] was 0.8793 ± 0.0038, the normalised cell viability [2] was 0.568 ± 0.033 and the normalised cell viability [3] was 0.908 ± 0.015. It also gave a normalised cell viability [4] of 0.708 ± 0.061, a normalised cell viability [5] of 0.92 ± 0.026 and a normalised cell viability [6] of 0.53 ± 0.1.
Molecule `OC[C@@H](O)CN1CCN(c2ccccc2)CC1` [Levodropropizine] has a normalised cell viability [1] of 1.007 ± 0.0058, a normalised cell viability [2] of 0.993 ± 0.0089 and a normalised cell viability [3] of 1.027 ± 0.0058. It also gave a normalised cell viability [4] of 0.996 ± 0.025, a normalised cell viability [5] of 1.002 ± 0.0072 and a normalised cell viability [6] of 0.9823 ± 0.0045.
For `COc1cc(N)c(Cl)cc1C(=O)OCCN1CCCCC1`, the normalised cell viability [1] was 0.9993 ± 0.0097, the normalised cell viability [2] was 1.013 ± 0.0058 and the normalised cell viability [3] was 1.01 ± 0.013. For the same molecule, the normalised cell viability [4] was 1.05 ± 0.071, the normalised cell viability [5] was 0.9953 ± 0.0057 and the normalised cell viability [6] was 1.01 ± 0.017.
`CC[C@H](c1ccc(O)cc1)[C@@H](CC)c1ccc(O)cc1` [Hexestrol] showed a normalised cell viability [1] of 1.03 ± 0.015, a normalised cell viability [2] of 0.995 ± 0.022 and a normalised cell viability [3] of 1.04 ± 0.01. It also gave a normalised cell viability [4] of 1.01 ± 0.016, a normalised cell viability [5] of 1 ± 0.0087 and a normalised cell viability [6] of 0.9943 ± 0.006.
`Nc1ncnc2c1ncn2C1CCCC1` [9-cyclopentyladenine monomethanesulfonate] showed a normalised cell viability [1] of 1.01 ± 0.012, a normalised cell viability [2] of 1.01 ± 0.017 and a normalised cell viability [3] of 0.9837 ± 0.0021. The normalised cell viability [4] was 1.02 ± 0.028, the normalised cell viability [5] was 0.9907 ± 0.0021 and the normalised cell viability [6] was 1.002 ± 0.0068.
